Where “and” joins values, the source holds several entries; their conditions need not be identical. Equal values may be shown once. Hit rate of the full screen: of about 230,000 compounds, about 3,600 (1.6%) were called active. Inconclusive means that the source gave no clear call. Such entries were picked first, then a sample of the others. The call rests on the fitted dose curve; in most records, active means well fitted inhibition curve with a large enough effect (not every such curve was filed as active); inconclusive means small, poorly fitted or top-dose-only effect, or another doubt; inactive means no such curve, though single readings can be large or run the other way. Potencies of inconclusive entries are doubtful fits and often do not repeat.
These compounds were tested against Lysine-specific demethylase 4E (Homo sapiens) (UniProt B2RXH2) (assay: qHTS Assay for Inhibitors of Human Jumonji Domain Containing 2E (JMJD2E)). Conditions: JMJD2E catalytic domain, FDH-coupled NADH fluorescence (FDH is formaldehyde dehydrogenase); series mostly up to 57.1 µM.
Further: nearly all actives have a fitted effect of over 50% in size.
Potency means the concentration at half of the fitted maximal effect; tags describe the fitted curve by direction and shape.

Chain of UniProt B2RXH2 (B2RXH2 whole entry, looked up, the tested form may be a part): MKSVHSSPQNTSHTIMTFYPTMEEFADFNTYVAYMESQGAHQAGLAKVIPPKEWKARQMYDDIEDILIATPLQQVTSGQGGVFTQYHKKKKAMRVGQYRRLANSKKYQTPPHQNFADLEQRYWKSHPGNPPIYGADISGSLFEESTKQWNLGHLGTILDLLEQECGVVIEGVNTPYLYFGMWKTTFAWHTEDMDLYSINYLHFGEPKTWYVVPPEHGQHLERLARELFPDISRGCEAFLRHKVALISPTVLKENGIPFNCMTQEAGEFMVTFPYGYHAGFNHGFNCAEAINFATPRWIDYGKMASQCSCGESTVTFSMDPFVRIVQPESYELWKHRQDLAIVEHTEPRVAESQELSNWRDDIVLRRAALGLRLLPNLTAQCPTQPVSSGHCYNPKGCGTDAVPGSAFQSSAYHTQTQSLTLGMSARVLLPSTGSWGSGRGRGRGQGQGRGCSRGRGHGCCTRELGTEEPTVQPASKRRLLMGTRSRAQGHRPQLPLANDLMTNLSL

Compound | Potency
CC(C)C[C@H]1C(=O)N2CCC[C@@H]2[C@]2(O)O[C@](NC(=O)[C@H]3C=C4c5cccc6[nH]c(Br)c(c56)C[C@H]4N(C)C3)(C(C)C)C(=O)N12 | inconclusive: 12.6 µM [inhibitor, partial curve]
O=C1NC(=O)C2(Cc3c(nc4ccccn4c3=O)N3CCCCCC32)C(=O)N1Cc1ccccc1 (configuration not stated) | inconclusive: 39.8 µM [inhibitor, single point]
CCN1c2nc3c(C)cccn3c(=O)c2CC2(C(=O)N(C)C(=O)N(C)C2=O)C1C (configuration not stated) | inconclusive: 39.8 µM [inhibitor, single point]
Cc1ccc(-c2nc3ccccc3c(=O)n2-c2cc(C)ccn2)cc1 | inconclusive: 15.8 µM [inhibitor, partial curve]
Cc1sc2ccccc2c1CC1=NCCN1 | inconclusive: 25.1 µM [inhibitor, partial curve]
CSc1ccc(C(c2c(O)c3ccccc3oc2=O)c2c(C)n(C)n(-c3ccccc3)c2=O)cc1 (configuration not stated) | inconclusive: 35.5 µM [inhibitor, single point]
COc1cc(/C=N/n2cnnc2)ccc1OC(=O)N(C)C | inconclusive: 39.8 µM [inhibitor, single point]
CCN(CC)C(=O)c1ccc(NC(=O)CSc2nnnn2-c2cc(OC)ccc2OC)cc1 | inactive
CCn1c(C)c(C(=O)O)c2cc(OC)ccc21 | inconclusive: 39.8 µM [inhibitor, single point]
CCN(CC)C(=O)N[C@H]1C=C2c3cccc4[nH]cc(c34)C[C@@H]2N(C)C1 | inconclusive: 12.6 µM [inhibitor, partial curve]
O=c1[nH]c(=S)n(-c2ccccc2F)c(O)c1C=NCc1ccco1 | inactive
Cc1ccsc1-c1nc(CSCC(=O)N2CCC3(CC2)OCCO3)c(C)o1 | inconclusive: 28.2 µM [inhibitor, partial curve]
CCOc1cc(-c2c(C#N)c(=O)[nH]c3c2c(C)nn3-c2ccc(F)cc2)ccc1O | inconclusive: 8.91 µM [inhibitor, single point]
O=C1NC(=O)C(=CN2CCc3ccccc32)C(=O)N1 | inactive
CCCCCCC(=O)N/N=C/c1c(O)n(CCc2ccccc2)c(=O)[nH]c1=O | inconclusive: 39.8 µM [inhibitor, single point]
N#CC(C#N)=Cc1ccc(O)c(O)c1 | active: 2 µM and active: 7.94 µM
CC(C)[C@H]1C(=O)N2CCC[C@H]2[C@]2(O)O[C@](NC(=O)[C@@H]3C=C4c5cccc6[nH]cc(c56)C[C@H]4N(C)C3)(C(C)C)C(=O)N12 | inconclusive: 15.8 µM [inhibitor, partial curve]
CC(=O)c1c(O)c(C)c(O)c(Cc2c(O)c3c(c(C(=O)/C=C\c4ccccc4)c2O)OC(C)(C)C=C3)c1O | active: 20 µM
C=CCN1C(=O)/C(=C/c2ccc3c(c2)CCCN3CCC)C(=O)NC1=S | inconclusive: 35.5 µM [inhibitor, single point]
Oc1ccc(/C=N/NP(=S)(c2ccccc2)c2ccccc2)cc1 | inactive
O=C1NC(=O)N(Cc2ccccc2)C(=O)/C1=C/c1cnc(-c2ccccc2)nc1 | active: 22.4 µM

Compound | Potency
CCCN1CCc2cc(O)cc3c2C1Cc1ccc(O)c(O)c1-3 (configuration not stated) | inconclusive: 28.2 µM [inhibitor, partial curve]
O=C(CNC(=O)c1ccccc1)Nc1ccc(Br)cc1C(=O)c1ccccc1 | inactive
S=c1[nH]nc(Cn2c(-c3ccccn3)nc3ccccc32)n1-c1ccc2c(c1)OCCO2 | inconclusive: 39.8 µM [inhibitor, single point]
CN1C(=O)C(Cc2ccsc2)C(=O)N(C)C1=O | inactive
CSc1ncc(/C=C2/C(=O)NC(=O)N(c3ccc(Cl)cc3)C2=O)cn1 | inconclusive: 31.6 µM [inhibitor, single point]
NC(=O)CI | active: 31.6 µM
CCOP(=S)(OCC)SCn1c(=O)oc2cc(Cl)ccc21 | inactive
COc1ccc(CCn2c(NN=C3CCCC3)nc3c2c(=O)[nH]c(=O)n3C)cc1 | inconclusive: 15.8 µM [inhibitor, partial curve]
Cc1cc(C=O)c(C)n1CC1CCCO1 (configuration not stated) | inactive
Cc1ccc2c(Cl)cc(Cl)c(OCC(=O)N(C(C)C)C(C)C)c2n1 | inconclusive: 28.2 µM [inhibitor, partial curve]
O=c1c2ccccc2nc(-c2cccs2)n1-c1ccccc1 | inconclusive: 39.8 µM [inhibitor, single point]
CC1COC2=C1C(=O)C(=O)c1c2ccc2c1CCCC2(C)C (configuration not stated) | inconclusive: 35.5 µM [inhibitor, partial curve]
O=C(N/N=C/c1c(O)n(Cc2ccccc2)c(=O)[nH]c1=O)c1ccccc1 | inconclusive: 25.1 µM [inhibitor, single point]
COc1ccc(N2C(=O)/C(=C/C=C/c3ccccc3[N+](=O)[O-])C(=O)NC2=S)cc1 | inconclusive: 7.08 µM [inhibitor, partial curve]
COCCCn1c(N)c(C(=O)NCCC(C)C)c2nc3ccccc3nc21 | inconclusive: 28.2 µM [inhibitor, partial curve]
CC(C)(C)NC(=O)NC(=O)CN1CC=C(c2ccccc2)CC1 | inconclusive: 28.2 µM [inhibitor, partial curve]
O=C1NC(=O)N(c2ccc3c(c2)OCO3)C(=O)/C1=C\c1ccc(-c2ccccc2C(=O)O)o1 | inconclusive: 2.82 µM [inhibitor, partial curve]
Cc1cc(=O)n(-c2ccccc2Cl)[nH]1 | inconclusive: 3.98 µM [inhibitor, full curve, poor fit]
CC(C)C[C@H]1C(=O)N2CCCC2[C@]2(O)O[C@](NC(=O)[C@@H]3C=C4c5cccc6[nH]cc(c56)CC4N(C)C3)(C(C)C)C(=O)N12 (some centres not stated) | inconclusive: 22.4 µM [inhibitor, partial curve] and inconclusive: 15.8 µM [inhibitor, partial curve]
CN(C)S(=O)(=O)c1ccc(C(=O)NNc2nc(-c3ccccc3)c3cc(Br)ccc3n2)cc1 | inconclusive: 39.8 µM [inhibitor, single point]
CCn1c(O)c(/C=N/NC(=O)c2ccccc2)c(=O)[nH]c1=S | active: 31.6 µM

Compound | Potency
CS(=O)(=O)Nc1ccc(Cc2noc(-c3ccc4[nH]cc(CCN)c4c3)n2)cc1 | inconclusive: 28.2 µM [inhibitor, partial curve] and inconclusive: 31.6 µM [inhibitor, partial curve]
C=CCSc1nc2c(c(-c3ccsc3)c1C#N)CN(C)CC2 | inconclusive: 15.8 µM [inhibitor, partial curve]
CCNc1nc(Cl)nc(NCC)n1 | inactive
O=C(NCC(c1cccnc1)N1CCN(c2ccccc2)CC1)Oc1ccccc1 (configuration not stated) | inconclusive: 8.91 µM [inhibitor, single point]
S=C(Nc1ccccc1)N1CCN(c2ccccn2)CC1 | inconclusive: 28.2 µM [inhibitor, single point]
CN1C(=O)NC(=O)/C(=C\c2ccc([N+](=O)[O-])o2)C1=O | inconclusive: 22.4 µM [inhibitor, single point]
CC(N=Cc1c(O)n(C2CC2)c(=S)[nH]c1=O)c1ccccc1 (configuration not stated) | inactive
CCOC(=O)/C=C1\Nc2ccccc2SC1=O | inconclusive: 39.8 µM [inhibitor, single point]
Cc1cc(N(CCCl)CCCl)ccc1/C=N/NC(=O)c1ccco1 | inconclusive: 28.2 µM [inhibitor, single point]
O=[N+]([O-])c1ccc(N2CCCCCC2)c2ncccc12 | inconclusive: 0.562 µM [inhibitor, full curve, poor fit]
COC(=O)C1=CO[C@@H](C)[C@@H]2CN3CCc4c([nH]c5cc(OC)ccc45)[C@@H]3C[C@H]12 | inconclusive: 25.1 µM [inhibitor, partial curve]
COc1ccc(OC)c(CN2CCN(C(=O)COc3cccc(C)c3)CC2)c1 | inconclusive: 35.5 µM [inhibitor, single point]
COc1ccc2c(c1)CC1(CN2C)C(=O)NC(=O)N(c2ccc(C)cc2)C1=O (configuration not stated) | inconclusive: 39.8 µM [inhibitor, single point]
C[C@@H]1C(=O)O[C@@H]2[C@H](O)C34[C@@H]5OC(=O)C3(O[C@H]3OC(=O)[C@H](O)C34[C@H](C(C)(C)C)[C@H]5O)[C@@]12O (some centres not stated) | inconclusive: 39.8 µM [inhibitor, single point]
Cc1cccc(N2C(=O)NC(=O)/C(=C\c3ccc(N4CCOCC4)cc3)C2=O)c1 | inconclusive: 28.2 µM [inhibitor, single point]
CCOP(=S)(OCC)Oc1cc(C)oc(=O)c1 | inconclusive: 39.8 µM [inhibitor, single point]
CC(C)OC(=O)c1c(N)n(CC2CCCO2)c2nc3ccccc3nc12 (configuration not stated) | inconclusive: 25.1 µM [inhibitor, partial curve]
Nc1c(C(=O)NCc2ccco2)c2nc3ccccc3nc2n1CCN1CCCCC1 | inconclusive: 14.1 µM [inhibitor, partial curve]
CCOc1ccc(-n2c(O)c(N=Nc3c(C)n(C)n(-c4ccccc4)c3=O)c(=O)[nH]c2=O)cc1 | active: 7.94 µM
COc1cccc(N2C(=O)NC(=O)/C(=C/c3ccc4c(c3)Cc3ccccc3-4)C2=O)c1 | inconclusive: 17.8 µM [inhibitor, partial curve]

Source: PubChem BioAssay AID2147 (National Center for Advancing Translational Sciences (NCATS), 2009)
